Test results reported in PubChem BioAssay AID624417 (National Center for Advancing Translational Sciences (NCATS), 2012).
Where “and” joins values, the source holds several entries; their conditions need not be identical. Equal entries are not always repeated. Hit rate of the full screen: of about 410,000 compounds, about 6,400 (1.6%) were called active. The shares of active, inactive and inconclusive entries below differ from those in the screen. Calls come from the whole dose curve; as a rule, active = well fitted inhibition curve with a large enough effect; inconclusive = small, poorly fitted or top-dose-only effect; inactive = no such curve, though single readings can be large or run the other way. Where the call is inconclusive, the potency comes from a doubtful curve fit.

Molecular target: Glucagon-like peptide 1 receptor (Homo sapiens) (UniProt P43220)
Chain of UniProt P43220 (P43220 whole entry, looked up): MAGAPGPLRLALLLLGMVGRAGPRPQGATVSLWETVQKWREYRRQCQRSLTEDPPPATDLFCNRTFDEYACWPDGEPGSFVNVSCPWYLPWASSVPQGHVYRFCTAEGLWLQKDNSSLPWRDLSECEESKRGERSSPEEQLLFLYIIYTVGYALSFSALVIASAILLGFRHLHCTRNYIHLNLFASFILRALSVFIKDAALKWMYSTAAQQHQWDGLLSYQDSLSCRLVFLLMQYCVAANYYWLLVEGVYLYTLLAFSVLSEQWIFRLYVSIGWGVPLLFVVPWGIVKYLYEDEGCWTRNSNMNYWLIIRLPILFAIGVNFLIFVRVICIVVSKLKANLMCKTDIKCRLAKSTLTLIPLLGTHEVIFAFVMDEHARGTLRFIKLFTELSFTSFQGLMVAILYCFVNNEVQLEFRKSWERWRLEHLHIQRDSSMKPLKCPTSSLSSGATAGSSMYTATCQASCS
Assay: qHTS of GLP-1 Receptor Inverse Agonists (Inhibition Mode); note: nearly all actives have a fitted effect of over 55% in size
Settings: HEK293 GLP-1R CRE-luciferase, luminescence, 24 h, GLP-1R form is constitutively active; activity change, negative = inhibition: at 38.3 µM (top of the series) unless noted
Method in brief: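 HEK293 cells stably co-expressing a cAMP-responsive luciferase reporter and constitutively active GLP-1R were seeded, incubated 12 h, then exposed to compounds for 24 h at 37 C. Luminescence was read 12 min after detection reagent; inverse agonists lower signal.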
% is set by controls: 0 for no effect and ±100 for the full control effect; potency is the fitted concentration of half-maximal effect; tags give direction and shape of the fitted curve.

Potency, inconclusive:
COc1cccc(-c2nc(SCC(=O)NCC3CCCO3)c(-c3ccc(Cl)cc3)[nH]2)c1 (stereo not drawn) 11.2 µM [inhibitor, single point]
O=C(C1CC1)N1CCc2sccc2C1c1ccc(Cl)cc1 (stereo not drawn) 8.91 µM [inhibitor, partial curve, poor fit]
COc1ccccc1N=Nc1nc(-c2ccccc2)c(-c2ccccc2)[nH]1 3.16 µM [inhibitor, full curve, poor fit]
CC1=C(C(=O)N(C(C)C)C(C)C)CC(CC(=O)NC2CCCCC2)C(=O)N1Cc1ccc(C(C)(C)C)cc1 (stereo not drawn) 11.2 µM [inhibitor, partial curve, poor fit]
COc1ccccc1CN1CCN(Cc2nc(-c3ccccc3)no2)CC1 28.2 µM [inhibitor, single point]
COc1ccc(C(=O)Nc2c(Cl)cc(Cl)cc2C(=O)N2CCC(C)CC2)cc1 28.2 µM [inhibitor, single point]
CN1CCN(c2ccc(NC(=O)c3ccc4c(c3)OCCO4)cc2)CC1 10 µM [inhibitor, single point]
C[C@@H]1[C@H]2CCCC[C@H]2CN(C(=O)OC(C)(C)C)[C@@H]1c1cn(Cc2ccccc2)c2ccc(F)cc12 10 µM [inhibitor, single point]
CCCN(C(=O)COC(=O)c1cc(CC)c(C)s1)c1c(N)n(Cc2ccccc2)c(=O)[nH]c1=O 10 µM [inhibitor, partial curve, poor fit]
Cc1ccc(-n2nc(C)c(C(=O)Nc3cccc(C(=O)NC4CC4)c3)n2)c(C)c1 7.08 µM [inhibitor, partial curve, poor fit]
O=S(=O)(NCCc1ccccc1)c1ccc(Br)cc1 14.1 µM [inhibitor, single point]
O=C(COC(=O)c1ccc(O)cc1)Nc1ccc(Cl)cc1 7.94 µM [inhibitor, partial curve, poor fit]
CC[n+]1ccccc1/C=C/c1ccc(N(C)C)cc1 17.8 µM [inhibitor, single point]
CCO[C@@H]1OC(C(=O)N2CCCCCCC2)=C[C@H](C2CCCCC2)[C@H]1CCCO 10 µM [inhibitor, partial curve, poor fit]
Cc1c(C(=O)N2CCN(c3ccc(F)cc3)CC2)sc2ncnc(N3CCN(c4ccccn4)CC3)c12 28.2 µM [inhibitor, single point]
CCCN(C(=O)Cn1ncc2c([nH]c3ccccc32)c1=O)c1ccc(F)cc1 28.2 µM [inhibitor, single point]
Oc1ccc(Nc2ccc3ccccc3c2)cc1 10 µM [inhibitor, partial curve, poor fit]
c1cnc2c(c1)ccc1cccnc12 3.55 µM [inhibitor, full curve, poor fit] and 3.16 µM [inhibitor, full curve, poor fit]
NS(=O)(=O)c1ccc(NC(=O)CSc2nc(Nc3ccccc3)nc(N3CCOCC3)n2)cc1 11.2 µM [inhibitor, single point]
CC(=O)c1cccc(NC(=O)CCCSc2nc(-c3ccco3)cc(C(F)(F)F)n2)c1 28.2 µM [inhibitor, single point]
Cc1nn(Cc2ccc(F)cc2)c(C)c1NC(=O)C1c2ccccc2Oc2ccccc21 12.6 µM [inhibitor, partial curve, poor fit]
Cn1ccnc1C1CCCCN1C(=O)c1cc(COc2ccc(F)cc2Cl)on1 (stereo not drawn) 10 µM [inhibitor, single point]
COc1ccc(-c2ccnc3c(Br)c(C)nn23)cc1 28.2 µM [inhibitor, single point]
CCn1cc(/C=C(\NC(=O)c2ccccc2OC)C(=O)N2CCOCC2)c2ccccc21 14.1 µM [inhibitor, partial curve, poor fit]
Cc1ccc(C(C)C)cc1OCC(=O)Nc1ccc(N2CCCCC2)cc1 14.1 µM [inhibitor, single point]
CN(C)c1ccc(CC(=O)N2CCCCC2c2cc(C(=O)Nc3cccc4c3CCCC4)no2)cc1 (stereo not drawn) 12.6 µM [inhibitor, partial curve, poor fit]
Cc1ccc(CN2CCC[C@]3(N[C@H](c4ccc(C(F)(F)F)cc4)[C@@H]4C(=O)N(C)C(=O)[C@@H]43)C2=O)cc1 22.4 µM [inhibitor, single point]
CCN(C(=O)COC(=O)c1cc(NS(=O)(=O)c2ccc(Cl)c([N+](=O)[O-])c2)ccc1O)C1CCCCC1 11.2 µM [inhibitor, partial curve, poor fit]
Cc1ccc(NC(=S)NC2CCCCC2)cc1S(=O)(=O)N(C)C 28.2 µM [inhibitor, single point]
Cc1ccc(C(=O)Nc2cccc([N+](=O)[O-])c2)cc1S(=O)(=O)Nc1ccc(NC(=O)c2ccccc2)cc1 7.08 µM [inhibitor, partial curve, poor fit]
COC(=O)c1sccc1S(=O)(=O)N(CC(=O)Nc1ccccc1C)c1ccc(Cl)cc1 11.2 µM [inhibitor, partial curve, poor fit]
Cc1ccc(C2=NN(C(=O)CN3C(=O)c4ccccc4S3(=O)=O)C(c3ccco3)C2)cc1 (stereo not drawn) 10 µM [inhibitor, single point]
COc1ccc(-n2c(=O)c(CCC(=O)N3CCC(C)CC3)nc3ccccc32)cc1 28.2 µM [inhibitor, single point]
O=C(CCCOc1ccccc1)N1CCCCC1 8.91 µM [inhibitor, partial curve, poor fit]
CC(C)(C)NC(=O)c1oc2ccccc2c1COc1ccccc1 6.31 µM [inhibitor, partial curve, poor fit]
COc1ccc(C2(c3ccc(OC)cc3)NC(=O)N(CC(=O)Nc3ccc(OC(F)F)cc3)C2=O)cc1 7.94 µM [inhibitor, partial curve, poor fit]
COC(=O)c1cccc(C23CC4(C2)[C@H](CN(Cc2cccnc2)[C@@H]4c2ccccc2)C3c2ccccc2)c1 (stereo partly drawn) 14.1 µM [inhibitor, partial curve, poor fit]
Cc1c(Cl)cccc1NC(=O)c1cc(S(=O)(=O)N2CCCCC2)cn1C 10 µM [inhibitor, partial curve, poor fit]
CCOc1ccc(OCCSc2nc3ccccc3[nH]2)cc1 10 µM [inhibitor, single point]
CCOC(=O)c1cc(-c2ccc(N3CCOCC3)cc2)nn1-c1ccccc1 20 µM [inhibitor, single point]
COc1ccccc1NC(=O)Nc1nc(C(N)C2CCCCC2)cs1 (stereo not drawn) 11.2 µM [inhibitor, single point]
Cn1cc(/C=N/NC(=O)COc2ccccc2[N+](=O)[O-])c2ccccc21 11.2 µM [inhibitor, partial curve, poor fit]
CC1(C(=O)NS(=O)(=O)c2ccc(F)cc2F)CCN1C(=O)CC(c1ccccc1)c1ccccc1 (stereo not drawn) 28.2 µM [inhibitor, single point]
COc1cccc(OC)c1C(=O)Nc1ccccc1N1CCCCC1 31.6 µM [inhibitor, single point]
COc1ccc2c(c1)-c1c(sn(-c3ccc(OC)c(OC)c3)c1=S)C(C)(C)N2 2 µM [inhibitor, full curve, poor fit]
COc1ccc(CNCCC(c2ccc(C)cc2)c2ccco2)cc1 (stereo not drawn) 12.6 µM [inhibitor, single point]
CCOC(=O)c1nc(Nc2ccc(Nc3ccccc3)cc2)c2ccccc2n1 8.91 µM [inhibitor, partial curve, poor fit]
O=C(NCc1cccs1)C1CC(c2ccc(Cl)c(Cl)c2)=NO1 (stereo not drawn) 0.891 µM [inhibitor, full curve, poor fit]
Cc1ccc(NC(=O)CSCC(=O)Nc2cc(Cl)ccc2N2CCN(C)CC2)cc1 11.2 µM [inhibitor, partial curve, poor fit]

Potency, active:
O=C(N/N=C/c1ccc(OC(F)F)cc1OC(F)F)NC1CCCCC1 4.47 µM

Activity change, negative = inhibition, inactive:
O=C(Nc1ccccc1N1CCN(C(=O)c2ccc(Cl)cc2)CC1)c1cc(Br)ccc1Cl 0%
CCc1ccccc1NC(=O)Nc1cc(C(=O)NCc2ccccc2OC)ccc1N1CCCC1 14.3%
O=C(CCn1nc(-c2ccccc2)c2ccccc2c1=O)Nc1cccnc1 27.2%
COc1cc(/C=C(\C#N)c2nc3ccccc3s2)cc([N+](=O)[O-])c1O -1%
Cc1ccc(-n2nc(C)c3c(C)cc(=O)n(CC(=O)Nc4cc(Cl)ccc4C)c32)cc1 11.4%
Cc1c(O)ccc2c3c(c(=O)oc12)CCCC3 19.4%
Cc1ccc2oc(=O)c3cc(C(=O)Nc4ccc(C)c(F)c4)sc3c2c1 -3.56%
Cc1ccc(NC(=O)c2cc(N3C(=O)C=CC3=O)ccc2N2CCOCC2)cc1Cl 24.7%
